Experimental data published in ChEMBL document CHEMBL4888484, “Replenishing the malaria drug discovery pipeline: Screening and hit evaluation of the MMV Hit Generation Library 1 (HGL1) against asexual blood stage Plasmodium falciparum ,using a nano luciferase reporter read-out” (2022).
The whole screen tested about 150,000 compounds, of which about 540 (0.36%) showed an effect of 50% or more. The list shows a part of the results.

tested on: Plasmodium falciparum; assay: Primary screen in NF54 nanoGlo assay, in single point, at 2uM, 72h; a lower Z score goes with more inhibition; assay type: functional, Erythrocyte; conditions: timepoint 72 hour

Row | Compound | % Inhibition [%] | Z score
1 | COC(=O)C1=C(c2ccccc2)S/C(=C2/C(=S)C(C)(C)Nc3ccc(C)cc32)S1 | -8 | 0.99
2 | CCCN(CCC)S(=O)(=O)N1CCN(CCNC(=O)c2ccco2)CC1 | -8 | 1.16
3 | O=C(NCc1nnc2ccccn12)c1n[nH]c2c1CCCC2 | -28 | 3.82
4 | O=C(CCc1n[nH]c2c1CCCC2)NCCNS(=O)(=O)c1ccc(Cl)cc1 | 5 | -1
5 | Cc1ccc(C)c(NS(=O)(=O)c2c(C)[nH]c(C)c2-c2nnc(C)o2)c1 | 15 | -1.85
6 | O=C(Cc1ccsc1)NCc1cc(C2CC2)ncn1 | 8 | -1.09
7 | CCCOc1ccccc1CN1CCC2(CCC(=O)N(C3CC3)C2)CC1 | -11 | 1.51
8 | O=C(Cn1ccc2ncccc2c1=O)NC[C@H]1CCCO1 | 7 | -1.22
9 | Cc1cc2n(n1)CCCN2C(=O)Nc1cccc(C)c1C | -12 | 1.5
10 | CC(C)n1ncnc1CN1CCC[C@H]1c1ccnn1C | 2 | -0.31
11 | Cc1ccc(-c2cc(C(=O)N3CCN(c4ncccn4)CC3)c3ccccc3n2)s1 | -16 | 2.31
12 | O=C(Cc1nnc(-c2ccccc2)o1)NCC1CC1 | -12 | 1.58
13 | O=C(N[C@@H]1CN(CCCc2ccccc2)C[C@H]1CO)C1CCC1 | -8 | 1.21
14 | CCc1cc(CN2CC[C@](C(=O)O)(c3ccccc3)C2)on1 | -5 | 1.13
15 | CCOCCCNC(=O)c1cn(C)nc1[C@H]1CCCN(C(=O)OC(C)(C)C)C1 | -13 | 1.29
16 | N[C@H](c1nc(-c2ccco2)nn1-c1cccnc1)C1CCCCC1 | -11 | 1.28
17 | O=C(NCCc1ccccc1)c1cccc(Oc2cc(-c3ccc(F)cc3)ncn2)c1 | -9 | 1.14
18 | CC1(C)C[C@H]2c3cccc(C(=O)O)c3C(=O)N2Cc2c(Cl)cccc21 | 31 | -3.5
19 | Cc1cccc(Cl)c1S(N)(=O)=O | 5 | -0.62
20 | CO[C@@H](C)c1noc(CN(C)Cc2cncc(C(F)(F)F)c2)n1 | 5 | -0.49
21 | Cc1ccc(C)c(N(C(=O)[C@@H]2CCO2)C(C)C)c1 | -11 | 1.36

Row | Compound | % Inhibition [%] | Z score
22 | Cn1c([C@@H]2CCCO2)nc2cc(NC(=O)CC3CCCC3)cc(C(=O)N3CCc4ccccc4C3)c21 | 5 | -0.85
23 | O=C1C[C@@]2(CCN(c3nccc4cc(C(F)(F)F)ccc34)C2)CN1 | -5 | 0.74
24 | CC(O)CC(C)Nc1ccc(C#N)cc1 (stereo not drawn) | 8 | -1.02
25 | CCOC(=O)c1c(-c2ccc(Cl)cc2)nn2c1NCN(CCc1ccccc1)C2 | -11 | 1.74
26 | O=C(CCc1cc2n(n1)CCN(Cc1nc3ccccc3[nH]1)C2)NC1CCCC1 | 2 | -0.31
27 | COc1cccc(CN2CCC3(CC2)c2ccccc2[C@@H](NC(=O)c2ccccc2OC)[C@@H]3OC)c1 | 8 | -1.13
28 | OC[C@H]1CCCCN1c1cc(N2CCNc3ccccc3C2)ncn1 | -16 | 1.98
29 | CC[C@H]1CCCCCN1C(=O)C1CC=CC1 | -1 | 0.21
30 | CCn1cnc2cc(-c3noc(-c4ccc(Br)o4)n3)ccc21 | 30 | -3.94
31 | FC1(F)CCCN(Cc2cc3cccnc3o2)C1 | -22 | 4.06
32 | Cc1ccc(C(=O)O)cc1-n1c(=O)c2cc3[o+]c4ccccc4c4ccccc4[o+]c3cc2c1=O | -11 | 1.4
33 | Cc1nc(CNC2CCCCC2OCc2ccccc2)no1 (stereo not drawn) | -7 | 0.98
34 | CCNc1ncc(C(=O)N(C)Cc2nccn2CC(F)(F)F)s1 | -13 | 1.92
35 | Cc1cnn(C[C@H]2CCCN2c2nnc(C)c(C)c2C#N)c1 | -3 | 0.57
36 | CN(C)c1nccc(N(C)CCc2ccc(F)cc2)n1 | -12 | 1.23
37 | O=C1[C@H]2C(Cc3c[nH]c4ccccc34)N[C@@]3(C(=O)Nc4ccccc43)[C@H]2C(=O)N1CC1CCCO1 (stereo partly drawn) | -7 | 0.9
38 | O=C(c1ccnc(-c2ccc(OCc3ccccc3)c(Cl)c2)c1)N1CCCC1 | -11 | 1.65
39 | Cn1nc(O)c2c1CN(C(=O)Nc1ccc3c(c1)OCCCO3)CC2 | -8 | 1.2
40 | CN(c1nc(CN2CCCCC[C@@H]2CCO)cs1)C1CC1 | -9 | 1.25
41 | COc1cc2c(cc1-c1cn(CCN3CCCOC3=O)nn1)OCCCO2 | -2 | 0.25
42 | COc1ccc(-c2cc3c(N4CCN(Cc5ccc6c(c5)OCO6)CC4)nccn3n2)cc1OC | 37 | -4.74

Row | Compound | % Inhibition [%] | Z score
43 | CN(C)C(=O)NCc1cc2n(n1)CCCN(Cc1ccc3c(c1)OCO3)C2 | 9 | -1.3
44 | CCN(Cc1ccc(OC)nc1)C(C)(C)CO | -2 | 0.22
45 | O=C(NC1CCN(Cc2ccccc2)CC1)c1cn(CCc2ccccc2)nn1 | 4 | -0.58
46 | CCc1cc(C(=O)N2CCC([C@@H]3OCCC3C(=O)O)CC2)oc1CC (stereo partly drawn) | 9 | -0.88
47 | CC(C)O[C@H]1CN(C(=O)CCNC(=O)c2ccc(F)cc2)C[C@@H]1O | 6 | -0.9
48 | CCOc1ccccc1N(CC(=O)Nc1cccc(N(C)S(C)(=O)=O)c1)S(=O)(=O)c1ccc(Cl)cc1 | -11 | 1.5
49 | O=C(Nc1scnc1C1CC1)N1CCCn2c(cc3ccccc32)C1 | 10 | -1.46
50 | CC(NC(=O)[C@H]1CCC(=O)N1)C1CC2CCC1C2 (stereo partly drawn) | -1 | 0.1
51 | Cc1c[nH]c(C(=O)N2CCN(Cc3ccncc3)[C@@H]3CS(=O)(=O)C[C@@H]32)c1 | -7 | 1.47
52 | CCCN(C(=O)NCc1ccc(O)cc1)[C@H]1CCCC[C@@H]1O | -10 | 1.25
53 | COc1ccc(-c2cc(C(=O)NCCc3ccccc3)sn2)cc1 | -10 | 1.26
54 | COc1ccc(CCC(=O)N2Cc3cncnc3C2)cc1 | -12 | 2.08
55 | CCCCn1cc(C(=O)N2CCc3ccncc32)c(C)n1 | -13 | 2.45
56 | CN1CC[C@@H]2CN(C3CCN(c4nc5ccccc5o4)CC3)C[C@@H]21 | -5 | 0.59
57 | CC(C)(C)OC(=O)[C@@]12CCC[C@H]1CN(C(=O)c1cscn1)C2 | -4 | 0.45
58 | CC(C)CN(CC(=O)NC(C)C)c1cccc(O)c1 | -3 | 0.6
59 | O=C(N[C@H]1CC12CCCCC2)c1cc(F)cc2[nH]nnc12 | -9 | 0.74
60 | CCCOc1ncccc1CNC(=O)CN1Cc2ccccc2C1 | -14 | 1.37
61 | O=C(N1CCN(CCCO)CC1)N1CCN(Cc2ccccc2)CC1 | -11 | 2.01
62 | CCOC(=O)N1CCN(C(=O)CCc2nnc(CCc3ccccc3OC)o2)CC1 | -3 | 0.5
63 | C[C@H]1CCCN(Cc2c(-c3ccccc3)nc3ccc(Cl)cc3c2O)C1 | -11 | 1.44

Row | Compound | % Inhibition [%] | Z score
64 | CCc1oc(C(=O)Nc2cnccn2)cc1C | -6 | 1.01
65 | Cc1nn(C)c(C)c1S(=O)(=O)N1CC(Oc2cccnc2)C1 | -5 | 0.88
66 | CNC(=O)[C@H](C)N(C)C(=O)c1cc2c(n(C)c1=O)CCCC2 | -10 | 1.69
67 | Cc1noc(C)c1CC(=O)N[C@H]1CC(=O)N(c2ccccc2)C1 | -14 | 2.12
68 | COc1ccc(OC)c2c1cc1n2C[C@@](C)(C(=O)NC2CCCCCC2)N(Cc2ccccn2)C1=O | -2 | 0.32
69 | O=C(Nc1nc2c(s1)CN(Cc1ccccc1)CC2)c1ccc(S(=O)(=O)N2CCCC2)cc1 | 13 | -1.7
70 | C=C(C)CN1CCN(CC[C@H]2CCOC2)CC1 | -10 | 1.87
71 | NC(=O)NCCC(=O)N1CCc2onc(-c3cccc4ccccc34)c2C1 | -2 | 0.36
72 | CCOCCNc1ccc(S(N)(=O)=O)cc1C(F)(F)F | 0 | -0.09
73 | COc1ccccc1CCC(=O)N1C[C@@H]2C[C@H]1C(=O)N2c1cc(Cl)ccc1OC | 4 | -0.62
74 | Cc1cc(CN(C)C(=O)c2[nH]nc(C)c2Cl)on1 | 2 | -0.23
75 | COC(=O)NC12C3C4C1C1C2C3C1(Br)C41OCCO1 (stereo not drawn) | -22 | 2.6
76 | CC(C)(C)c1cc(-c2nccn2[C@H]2COC[C@@H]2N2CCCCC2)n[nH]1 | -5 | 0.94
77 | Cc1nnsc1C(=O)NCCn1ccc(C(F)(F)F)n1 | -20 | 2.56
78 | O=C(NC[C@H](O)c1cccnc1)c1cn(Cc2ccc(F)cc2)nn1 | -5 | 0.65
79 | C=CCNC(=O)CN1CC[C@@](O)(c2ccccc2)[C@H]2CCCC[C@H]21 | -12 | 2.12
80 | c1ccc(-c2cnc(NC3CCOC(c4cccnc4)C3)cn2)cc1 (stereo not drawn) | -10 | 1.84
81 | O=C(NC[C@H](O)c1ccoc1)c1ccc(Br)o1 | -10 | 1.57
82 | Cc1occc1CNS(=O)(=O)CCCS(=O)(=O)C(F)(F)F | -5 | 0.98
83 | CCOC(=O)N1CCN(c2ccc(NC(=O)C3CCCC3)c(C(=O)O)c2)CC1 | 12 | -1.9
84 | Cc1ccc(N2C[C@@H](C(=O)Nc3cc(NC(=O)Cn4cccnc4=O)ccc3F)CC2=O)cc1F | 5 | -0.65
